± gives the standard deviation. The list shows a part of the results, in another mix than the full data.
Each sequence was assayed on MIWI (PIWIL1) piRISC loaded with piRNA #1 (30 nt) (assay: pre-steady-state target cleavage rate (min^-1); MIWI and MILI are mouse PIWI proteins and EfPiwi is from a freshwater sponge; tags in brackets are library labels; higher = faster piRNA-guided slicing of the target). Conditions: guide: piRNA #1 5'p-UGAGGUAGUAGGUUGUAUAGUAUCCAGAGG; auxiliary factor: 500 nM mouse GTSF1.
In short: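 With or without 500 nM GTSF1 partner protein, 1 nM active affinity-purified piRISC carrying one synthetic guide was mixed with 0.1 nM transcribed, DNA-blocked target RNA library in HEPES–potassium acetate buffer at 33 °C for 0–8 or 0–960 min. Uncleaved targets were sequenced and normalised to depth and to weakly complementary targets, three trials were pooled, and k3 was capped at 0.0001 min^-1. The pre-steady-state cleavage rate came from a burst-and-steady-state fit.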

Sequence | pre-steady-state target cleavage rate
GGAGACCUAUGAUAUCAUCCUACUAGCUCA | < 0.0001
GGAGAGGAUACUUUACAACCUACUACCUCA | 1.51 ± 0.071
GGAGACGAUCUAUACAACCUACUACCUCA | 1.43 ± 0.11
GCUCUGGAUAGUUUACAACCUACUACCUCA | 0.904 ± 0.04
GGAGAGGAAACUAUACAACCUACAACCUCA | 0.607 ± 0.058
GGACUGGUUACUAUAGAACCUACUACCUCA | 1.24 ± 0.097
GGAGACGAUAGUAUACAACCUAGUACCUCA | 0.397 ± 0.046
GGAGACCUAUCUAUACAACCUACUACCGUCA | 0.739 ± 0.071
GGUCUGCAUACUUUACAACCUACUACCUCA | 1.48 ± 0.12
CCUCUGGAUAGUAUAGAACCUACUACCUCA | 0.37 ± 0.048
GGAGACCUAACUAUACAACCUACUGACCUCA | 0.623 ± 0.088
GGAGACGAUACUAUACAACCUACUCCCUCA | 0.806 ± 0.063
GGAGACCUAUGUAGUACAACCUACUACCUCA | 0.0175 ± 0.0062
GGUCUGGAUACUAUAGAACCUACUACGUCA | 0.023 ± 0.0054
GGUCUGGAUACUAUAGAUCCUACUACCUCA | 0.944 ± 0.072
GGAGACCUAUGUAUACAACCUACUACCAGA | 0.00496 ± 0.0018
GGAGUGGAUUCUAUACUACCUACUACCUCA | 1.07 ± 0.087
GGACUGGAUACUAUUCAACCUACUACCUCA | 1.64 ± 0.11
GGAGAGGAUACUAAUACAACCUACUACCUCA | 1.18 ± 0.06
GGAGACCUAUCUAAACAACCUACUUCCUCA | 0.00343 ± 0.0029

Sequence | pre-steady-state target cleavage rate
GGAGUGGAUACUAUACUUCCUACUACCUCA | 0.214 ± 0.026
GCUCUGGAUCUAUACAACCUACUACCUCA | 0.996 ± 0.074
GGAGUGGAUAGUAUACUACCUACUACCUCA | 0.516 ± 0.043
GGACUGGAUUCUAUACAACCUACAACCUCA | 0.447 ± 0.059
GGUCUGGAUACUAUACAAGCUACAACCUCA | 0.536 ± 0.045
GGAGACCAUACUAUACAACCUAGAUCCUCA | 0.113 ± 0.021
GCUCUGGAGACUAUACAACCUACUACCUCA | 1.99 ± 0.17
CCUCUCGAUACUAUACAACCAACUACCUCA | 0.166 ± 0.02
GGUCUGGAUACUAAACAACCUACUACCACA | 0.814 ± 0.066
GGAGUGGAUACUAAACAACCUACUAGCUCA | 0.108 ± 0.019
GCUCUGGAAACUAUACAACCUACUAGCUCA | 0.837 ± 0.13
GGAGAGGAUACUAUACAACCUACUACAUCA | 0.568 ± 0.047
GGAGACCUUAUCUAUACAACCUACUACCUCA | 1.19 ± 0.1
GGAGACCAUAGUAUACAACCUACUACGUCA | 0.249 ± 0.031
CCUCUGGAUACUAUUGUACCUACUACCUCA | 0.139 ± 0.021
CCUCUGGAUACUAUACAACCUGACUACCUCA | 0.00646 ± 0.0029
CCUCUGGAUAGUAUACAACCUACUACGUCA | 0.297 ± 0.036
GGAGACCUAACUAUUCAACCUACUACCUGA | 0.193 ± 0.042
GGAGAGGAUACUAUAGAACGUACUACCUCA | 0.107 ± 0.017
